± gives the standard deviation of the averaged measurements. The list shows a part of the results.
Test system: PfAP2-G AP2 domain (GST-tagged)
Experiment: gcPBM binding intensity (ln(normalized median fluorescence intensity)); higher = stronger DNA binding
Method in brief: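 GST-tagged P. falciparum DNA-binding domains produced in E. coli were incubated for 1 h on an Agilent 4 × 180k array of primer-extended double-stranded 36-bp intergenic genomic probes with negative controls. Binding intensity is the highest Masliner-normalised natural-log median intensity across replicate spots of either probe orientation, with bound protein detected by Alexa488 anti-GST antibody at 488 nm.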

Sequence | gcPBM binding intensity (ln)
TTTATTATATTTTTTTGTACATATTGATGTATATAA [XGTACX_site6527] | 11 ± 0.53
AGCAAAATGAAATAAATTGGAAAATATTACTGAACG [CACACA_negctrl_site1433] | 9.71 ± 0.18
ATAAAAAAAAAAAGAAGTACATGTATTAAAATTTAT [XGTACX_site3927] | 11.5 ± 0.62
AACAAAGGATTTATATATACATACATACATACATAA [GTGCAC_negctrl_site469] | 9.825 ± 0.035
TGAATTTACAAAATCATGCACTTAATTACAGAATAA | 9.875 ± 0.021
AAAAGTCTTCAAATTTGTACATATATATATATATAT [XGTACX_site3404] | 10.8 ± 0.38
GGTACATACAGACACACACACAAAAAAAAAAAAATA [CACACA_site6844] | 10.3 ± 0.52
GAGAAATGGAGACACACACACATATTATATATATAT [CACACA_site1532] | 10.3 ± 0.24
TGTATAAAATTCCATTGTACATATTATTTTACGACA [XGTACX_site7764] | 11.1 ± 0.61
ATGTTAAACAAATCTATACACACGTATATGACAAAA [CACACA_site1783] | 10.2 ± 0.16
TTAATATTAATTATATGTACATATAATATATATATA [XGTACX_site1757] | 11.3 ± 0.67
ATCTTTTCATATTGCTGTACAAATTATTTTCATTCG [XGTACX_site492] | 10.9 ± 0.47
TTTACAACATCAAAATGTACGCATTATTATTATTAA [XGTACX_site3017] | 11.4 ± 1.1
AAAAAAAAAAAACACACACACACACCCACCCATACA [CACACA_site2859] | 10.5 ± 0.23
ACATATAATATAAATTGTACATATAAATATATTATT [XGTACX_site4268] | 11.1 ± 0.61
TGTGTATAAATATACACACACATATAAATATTTTAA [CACACA_site7005] | 10.1 ± 0.18
TATTTAAAAAATAATACACACATAATATAACAAAAT [CACACA_site3174] | 10.14 ± 0.049
ACGTTATACACAGTACGTACATAACTATCTAAATGT [XGTACX_site5068] | 11.5 ± 0.91
TCATATATTTTATACATACACACATATATATATTTT [CACACA_site3941] | 9.97 ± 0.15
TTCACTTTTTTTTTTTTTTTTTTTTTTTTTTTTATT [GTGCAC_negctrl_site350] | 9.47 ± 0.18
ATGCATAATATACTCTTACACACCATTTCTATATAC [CACACA_site1461] | 10.1 ± 0.12
TATAACATAGGACACACACACATACATACACAAAAA [CACACA_site5062] | 10.8 ± 0.56

Sequence | gcPBM binding intensity (ln)
TGGAGGTCAGTTCACAGTACCCAGGAAATCTGCGGA [XGTACX_site2556] | 11 ± 0.86
TTTTCCTCTTAAAATATACACACTGATTTAAGAAAA [CACACA_site3301] | 9.88 ± 0.085
ACAAAGTTATAATTCTTGCACTTTAAGGTTCATTTA | 10.1 ± 0.33
ATAAATATCTAGGGTTCACACATTATATATCTGTAT [CACACA_site5702] | 10.07 ± 0.028
CGTGAATATATGATATGTACTTATAAAAATTTGTGC [XGTACX_site5480] | 11.3 ± 0.73
GGTATACACAAGTATACACACATATATATATATATA [CACACA_site9063] | 10.3 ± 0.54
TCATAAATATGAAAAAGTACAAAGGTAGATTTTGAA [XGTACX_site4535] | 11.2 ± 0.76
TATATATATATTATATGTACGTATGTATGTATATAT [XGTACX_site6451] | 11.3 ± 0.8
AAACGATTAATGTGTACACACATAGTTATAAACCTA [CACACA_site2110] | 11.6 ± 0.91
TTTTTTTTTTTTTTTTTTTTTTTTTTGTTCAGGCCT [GTGCAC_negctrl_site143] | 9.58 ± 0.34
ACGTAATAAAATAGTTGTACAACTTTTTATAATATA [XGTACX_site4393] | 11.8 ± 1.1
TATTAATTATATTTATGTACATAATCATATTATTAT [XGTACX_site7938] | 11.2 ± 0.71
TTTTTCTTTTTTTCTTTTTTTATAAAACTTAATTGT [CACACA_negctrl_site384] | 9.885 ± 0.021
AAAAAAAAAAAAAAATATATATATATATACATACAT [CACACA_negctrl_site317] | 9.92 ± 0.31
AGTAACAAAAGAAAAAAATATGCAAACATATATATA [XGTACX_negctrl_site468] | 9.685 ± 0.092
TTCATTTTTTGCTTTCAACACACATACAATATATAT [CACACA_site9369] | 10.2 ± 0.21
AGAAATATATATATATATATATATATATATATATAT [TGCATGCA_negctrl_site375] | 10 ± 0.88
AATTTAACCACTAAAAGTACACACATATATACATAT [XGTACX_site8352] | 11.4 ± 0.92
ATATAAATATATATATGTACATAATATATTATGTTT [XGTACX_site2806] | 11.1 ± 0.61
GGACACCTTCAAAACACACATACAAATAAATAGAAA [CACACA_site3305] | 10.4 ± 0.2
AAAGAAAGAAAGAATACACACACACCGATATATATA [CACACA_site9246] | 9.765 ± 0.021
AACATATATTTTGAAACACACACATATATAATATAC [CACACA_site8301] | 10.04 ± 0.035

Sequence | gcPBM binding intensity (ln)
AGGATAATATACAAAAGTACATAAAACTAAAAAAAC [XGTACX_site605] | 11.4 ± 0.92
ATATATATAAAATATTATATTAAAAAAAATAAAATA [GTGCAC_negctrl_site87] | 9.665 ± 0.064
TAGTTTTTTATATATTGTACTTAGAATATATTATAT [XGTACX_site3662] | 11.2 ± 0.73
AATGTGTATATATATACACACACATATATATATTTT [CACACA_site8596] | 9.975 ± 0.049
TCCTTTTTACTACTAGTGCATTATTTACAAGGTCCG [GTGCAC_site9441] | 10.3 ± 0.36
CATACACATTTCATATGTACATAGATTGAAGGGAAG [XGTACX_site116] | 11 ± 0.54
TATTTTTATTTATAACGTACGAAAAATGTATATAAT [XGTACX_site703] | 11.1 ± 0.62
TAAGCAAAAATAATTACACACAAATTTATAAAAAAT [CACACA_site3377] | 9.83 ± 0.057
ATAAAAATATAATTGAGTACATATGAATAGTCCTAT [XGTACX_site6281] | 11.4 ± 0.76
ATTTTGTTTTTTTTTGCACACCATAAGGAGTGTAGG [CACACA_site1414] | 10.3 ± 0.31
ACAACACATATTCATCGTACATGTATTAGGAAGACA [XGTACX_site1859] | 10.9 ± 0.51
TATATAAAAATATGTTGTACGCATTTATAAATATAT [XGTACX_site3758] | 11.6 ± 0.98
ATTTTTTTTTTTTTTTTTTTTTTTTTTGAATTCACA [CACACA_negctrl_site982] | 9.63 ± 0.17
TTTTATATATAATTCACACAAAAAAGATACATAAGA [CACACA_site5332] | 10.3 ± 0.25
GAATAATCCAAACACACACACACACCCGAATAAATA [CACACA_site482] | 10.2 ± 0.33
GAAATCTAAATAGAAACACACATATATAAATAAATA [CACACA_site7762] | 9.65 ± 0.21
AATAGTTCTTGAACGTGTACATAAAATATAATTTAC [XGTACX_site11] | 11.3 ± 0.86
TTCTATTTTTTAAAAGTGCATATTATAAATATATAT | 10.2 ± 0.26
ATATCTAATAAAAATACACACACATATGATTTGTGA [CACACA_site8558] | 9.77 ± 0.099
TATATAGAATTATATGCATGTTCAAAAAAATACAAC [TGCATGCA_site431] | 10 ± 0.17
TAGTATTTATATGTTATATATATAAAATAATACAGT [XGTACX_negctrl_site571] | 10 ± 0.39
AATTAGCATAAATGGGTGCTACACAAAAATGCATGT [GTGCAC_site9640] | 10.2 ± 0.15

Sequence | gcPBM binding intensity (ln)
ATATAATATATGTTATGTACATAGTTTTTATTGTTC [XGTACX_site7438] | 11.1 ± 0.79
AATATATAATCAGATGAATTTTTTTTTTTTTTTTCA [CACACA_negctrl_site534] | 9.26 ± 0.2
ATATAAATATGAAAAAGTACAAGCCATCAAGAAATC [XGTACX_site8140] | 11.1 ± 0.69
AATTTTTTATTCTTTGCATGTCATCATATATAATAT [TGCATGCA_site549] | 9.95 ± 0.15
ATATAATGTTAGGGTAGAGGAAGTAACTAATATAAA [CACACA_negctrl_site1153] | 10.05 ± 0.057
TTTAAAATTTAATTTTGTACATATACCAATTTTATT [XGTACX_site448] | 10.9 ± 0.52
TATAAATATTATAATTGTACATATTATAAAAATTTT [XGTACX_site2719] | 11 ± 0.75
TACCAAAAAACGGCACGCATATGTATAAGAATATGT [XGTACX_negctrl_site470] | 9.95 ± 0.24
AGCAACTAAAAAGGATACCCCATTAAAAAAAAATTA [XGTACX_negctrl_site489] | 10.5 ± 0.44
TGTGTATAAAAAAAGTGTACACAAAGTAAGACTTTA [XGTACX_site3759] | 11.7 ± 0.86
TTATATAACATAACGATGTTTCAAAACATATTGTAT [CACACA_negctrl_site997] | 9.815 ± 0.035
TTATAAAGAATTAGGAGTACAAATGCATATATAATA [XGTACX_site6580] | 11.5 ± 0.99
AAATATATAAAAGTATGTACATATGAAAAATATATA [XGTACX_site6165] | 11.3 ± 0.69
TACTTATGTTCGCACACATGCAAATTAAAAAAAAAA [TGCATGCA_site1023] | 10.3 ± 0.45
TACATATACATATTGTGTACATAATAATTATTTATA [XGTACX_site7884] | 11.5 ± 0.92
TATTAATAATTTTCATGTACATATGTATTTGTAATA [XGTACX_site858] | 11.2 ± 0.65
ATATAATAAATGTCATGTACATACAACATTTTAACT [XGTACX_site7517] | 11.1 ± 0.52
TGAATAAAGAAACACACACACATATATATATATGTA [CACACA_site17] | 9.765 ± 0.007
TTTTTAATTTACTGTCATAGGTACCTTAACTTATCA [CACACA_negctrl_site1664] | 10.8 ± 0.47
TTAATTAAGAAACACACACACATATATATATATATT [CACACA_site2290] | 9.815 ± 0.078
TATTATATATATGCACGTACAAAAATAATAAAGGTA [XGTACX_site3506] | 11.3 ± 0.8
TCTCTTTTTCGTTCATGTACAAATAAATAAAAATAT [XGTACX_site6558] | 10.9 ± 0.69

From the supplement of paper PMC11417369
